Laboratory results reported in article PMC5076566 (Cell, 2016).

Target: the molecule itself
Assay: filament assembly seen by transmission electron microscopy

B1: Recombinant human vimentin Δtail ([…] AA) (domain or fragment)
chain: not shown
**Q.** Does B1 bind?
**A.** Result: binds
